No constants are given. Whether binding was seen depends on the method and setting. In cells and extracts the contact can be indirect. Some binding calls cover weakened binding; strength is not graded here. For some assays here: Tags and fused reporters may be left off the sequences shown.
What was measured:
[1] = molecular target: T1, HiBiT-tagged human FZD9 (human) (UniProt O00144); assay: FRET or BRET; NanoBiT/BRET saturation binding on live HEK293A cells (setup 1): eGFP-WNT-3A conditioned medium 16.7 pM to 16.7 nM, 5% FBS, 10 mM HEPES, 240 min at 37 °C, then LgBiT and furimazine for 10 min; one-site specific model (normalised logarithmic fits for pKd)
T1 sequence: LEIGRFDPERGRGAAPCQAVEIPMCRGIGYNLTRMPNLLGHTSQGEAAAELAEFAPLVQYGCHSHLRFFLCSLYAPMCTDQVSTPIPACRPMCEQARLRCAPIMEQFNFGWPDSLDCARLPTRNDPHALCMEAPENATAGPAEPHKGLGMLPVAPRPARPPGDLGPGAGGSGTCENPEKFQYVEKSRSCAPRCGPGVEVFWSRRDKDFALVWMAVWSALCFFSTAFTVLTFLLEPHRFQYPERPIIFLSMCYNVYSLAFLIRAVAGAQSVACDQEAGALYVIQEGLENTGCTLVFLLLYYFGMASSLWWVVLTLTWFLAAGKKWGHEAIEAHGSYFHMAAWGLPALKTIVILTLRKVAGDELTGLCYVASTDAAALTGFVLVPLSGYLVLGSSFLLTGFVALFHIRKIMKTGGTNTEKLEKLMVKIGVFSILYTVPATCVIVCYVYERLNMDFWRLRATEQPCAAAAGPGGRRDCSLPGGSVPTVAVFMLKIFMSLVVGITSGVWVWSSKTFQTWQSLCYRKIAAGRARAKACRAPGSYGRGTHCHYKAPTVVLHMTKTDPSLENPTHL

Amino acid sequences for entries named in this document (tags omitted). Residues count along the entry.
UniProt Q9ULV1, residues 37-537: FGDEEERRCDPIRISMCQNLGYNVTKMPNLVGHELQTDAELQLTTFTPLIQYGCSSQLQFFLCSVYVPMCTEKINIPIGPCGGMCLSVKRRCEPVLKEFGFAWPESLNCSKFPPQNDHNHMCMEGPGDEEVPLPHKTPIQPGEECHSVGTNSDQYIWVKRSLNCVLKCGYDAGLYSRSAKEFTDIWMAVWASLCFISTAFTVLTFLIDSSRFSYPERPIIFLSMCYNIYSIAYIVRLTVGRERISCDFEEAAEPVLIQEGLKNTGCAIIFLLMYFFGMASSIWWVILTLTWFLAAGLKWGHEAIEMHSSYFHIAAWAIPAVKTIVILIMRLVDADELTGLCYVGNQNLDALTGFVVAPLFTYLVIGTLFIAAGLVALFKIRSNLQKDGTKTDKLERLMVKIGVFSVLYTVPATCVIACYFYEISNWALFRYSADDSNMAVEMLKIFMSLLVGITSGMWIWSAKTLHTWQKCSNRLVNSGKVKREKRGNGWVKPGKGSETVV
UniProt P27467, residues 19-352: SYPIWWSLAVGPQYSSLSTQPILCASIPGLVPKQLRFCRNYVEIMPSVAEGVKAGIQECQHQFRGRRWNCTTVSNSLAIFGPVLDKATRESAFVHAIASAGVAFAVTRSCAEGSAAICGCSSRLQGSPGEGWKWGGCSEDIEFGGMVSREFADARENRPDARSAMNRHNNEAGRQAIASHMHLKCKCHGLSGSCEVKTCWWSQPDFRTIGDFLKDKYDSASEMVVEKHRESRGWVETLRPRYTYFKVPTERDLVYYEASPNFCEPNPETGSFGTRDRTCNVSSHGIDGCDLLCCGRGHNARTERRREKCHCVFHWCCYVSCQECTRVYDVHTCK

[2] = molecular target: T2, HiBiT-tagged human FZD3 (human) (UniProt Q9NPG1); assay: as above
T2 sequence: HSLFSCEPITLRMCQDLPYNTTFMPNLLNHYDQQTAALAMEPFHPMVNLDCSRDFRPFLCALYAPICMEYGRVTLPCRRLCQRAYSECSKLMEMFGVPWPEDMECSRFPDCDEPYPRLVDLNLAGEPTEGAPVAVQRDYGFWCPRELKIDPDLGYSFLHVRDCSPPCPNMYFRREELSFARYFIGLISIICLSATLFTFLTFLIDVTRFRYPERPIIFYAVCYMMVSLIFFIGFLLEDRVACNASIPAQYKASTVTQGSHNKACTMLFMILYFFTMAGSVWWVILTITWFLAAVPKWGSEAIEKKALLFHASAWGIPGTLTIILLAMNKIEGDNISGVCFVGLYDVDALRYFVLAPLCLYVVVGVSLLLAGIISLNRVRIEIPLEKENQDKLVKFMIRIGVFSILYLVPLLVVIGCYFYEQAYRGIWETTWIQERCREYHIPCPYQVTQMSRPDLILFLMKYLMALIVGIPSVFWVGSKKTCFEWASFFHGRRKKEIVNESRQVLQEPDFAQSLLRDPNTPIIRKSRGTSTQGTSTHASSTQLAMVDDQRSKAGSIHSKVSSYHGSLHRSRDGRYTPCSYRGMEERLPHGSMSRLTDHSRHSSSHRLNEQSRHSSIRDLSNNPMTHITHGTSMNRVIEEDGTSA

[3] = molecular target: HiBiT-tagged human FZD4 (human) (UniProt Q9ULV1); assay: FRET or BRET; NanoBiT/BRET competition binding on live HEK293A cells: the tracer eGFP-WNT-3A (conditioned medium, 0.4 nM) on HiBiT-FZD4, 240 min at 37 °C
[4] = molecular target: T1, HiBiT-tagged human FZD9 (human); assay: FRET or BRET; NanoBiT/BRET kinetic binding on live HEK293A cells: cells preincubated 1 h with LgBiT and vivazine, then eGFP-WNT-3A conditioned medium at 2.1, 4.2 or 8.3 nM; BRET every 90 s for 240 min at 37 °C; association model with two or more hot ligand concentrations
[5] = molecular target: T2, HiBiT-tagged human FZD3 (human); assay: as above

- binding [1]: no binding (tested: 16.7 nM)
- binding [2]: no binding (tested: 16.7 nM)
- binding [3]: binds
- binding [4]: no binding (tested: 8.3 nM)
- binding [5]: no binding (tested: 8.3 nM)
Substance: eGFP-tagged mouse WNT-3A (from UniProt P27467 19-352) (ligand)
